These results are taken from the supplement of paper PMC11417369.

Some of the results follow.

This assay concerns PF3D7_0420300 AP2 domain 1 (GST-tagged). The assay can be described thus: gcPBM binding intensity (ln(normalized median fluorescence intensity)); higher = stronger DNA binding. The gist of the method:
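GST-tagged P. falciparum DNA-binding domains, expressed in E. coli (about 25 μg on average), were applied for 1 h to an Agilent 4 × 180k array of primer-extended double-stranded 36-bp intergenic genomic probes plus negative controls. The binding buffer was 1× PBS with 1% milk, 0.2 mg/ml BSA, 0.5% salmon testes DNA and 0.03% Triton X-100. Bound protein was detected with Alexa488 anti-GST antibody and scanned at 488 nm. Binding intensity is the highest Masliner-normalised natural-log median intensity across replicate spots of either probe orientation.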
For “ATATTTAAATTTTGCACACGCATATGAAATTAGGAC [CACACA_site1035]”, the “gcPBM binding intensity (ln)” value is 9.47.

In the case of “AAAATAAATAAATATACACACCATATTTATATTTTT [CACACA_site7361]”, the “gcPBM binding intensity (ln)” value came to 9.49.

For the sequence “TACTACACACATTCATGTACTTGATAAATTAATGAT [XGTACX_site6444]”, the “gcPBM binding intensity (ln)” value was determined as 9.44.

“ATAACTAATATGAAATGTACCCATCAAAGTGTGCAT [XGTACX_site4463]”: the “gcPBM binding intensity (ln)” value was 9.31.

“TAATTTGTTATTTATTGTACAAACATTATATGTTAA [XGTACX_site6637]”: the “gcPBM binding intensity (ln)” value was determined as 9.12.

For the sequence “AAAATTAAAATACGTACACACCTTATCTTTTTGGCT [CACACA_site4311]”, the “gcPBM binding intensity (ln)” value stood at 9.51.

For the sequence “ATATTATAAATATAATGTACGTTTTAATTTCATGTT [XGTACX_site3557]”, the “gcPBM binding intensity (ln)” value was 9.22.

For “ATATATAATTATTGAAGTACTTGTTCATAAAATGGT [XGTACX_site5656]”, the “gcPBM binding intensity (ln)” value came to 9.25.

As to “TATATGAGCATAAAGACACACAAATAAAACCAAACA [CACACA_site3856]”, the “gcPBM binding intensity (ln)” value is 9.81.

Take “AAAATAAAATGAAAACGTACATGATAAATTTTAATT [XGTACX_site4199]”: the “gcPBM binding intensity (ln)” value was determined as 9.49.

As for “ACGTTAGGCTTATTTGCACACTTGTATTATAATTTT [CACACA_site1317]”, the “gcPBM binding intensity (ln)” value was 9.58.

Turning to “AAAAATATGAAAGTAACTAAGTTGTTATTGATAACA [CACACA_negctrl_site1608]”, the “gcPBM binding intensity (ln)” value is 9.29.

As to “ATATTATCACAAGGTGGTACACAAAAAAAAAAAAAA [XGTACX_site8224]”, the “gcPBM binding intensity (ln)” value was 9.12.

Turning to “TACTTTCACATTAAATGTACGTATAGTTTCATTCTT [XGTACX_site8528]”, the “gcPBM binding intensity (ln)” value is 9.43.

With “ATATTAAAAATATATACACACATATATATAAATATA [CACACA_site2257]”, the “gcPBM binding intensity (ln)” value was found to be 9.37.

As to “ATAAATATGGAGCACACACACATAAACATACAGATA [CACACA_site4395]”, the “gcPBM binding intensity (ln)” value was found to be 10.1.

With TTTGGAGAATTCATAGTGCATTTATTTATTGTTAAT, the “gcPBM binding intensity (ln)” value was 9.28.

As for “TATATTTAAGTACATAAATAAGCCCATTTACATACA [CACACA_negctrl_site1224]”, the “gcPBM binding intensity (ln)” value came to 9.18.

Take “CATACATACATACATACACACATATATAAATATATG [CACACA_site7028]”: the “gcPBM binding intensity (ln)” value came out at 9.8.

Consider “TAAGTGATCGCATAATGTACATATTATTTATTATTT [XGTACX_site3061]”, for which the “gcPBM binding intensity (ln)” value was 9.12.

In the case of “TACATTTAAAAAAAAACACACATATTTATATTTATA [CACACA_site7236]”, the “gcPBM binding intensity (ln)” value was found to be 9.23.

As for “GGAAGGATATAACATACACACACACCCATATATATA [CACACA_site9376]”, the “gcPBM binding intensity (ln)” value turned out to be 10.

Turning to “TTATGTATTTATTTATGTACTAATTGTATGCATATT [XGTACX_site6436]”, the “gcPBM binding intensity (ln)” value stood at 9.33.

On to “TTTCCTGGTCAAGGGGTTACGGTTACGTCCTCTTGC [CACACA_negctrl_site856]”, for which the “gcPBM binding intensity (ln)” value was 8.91.

Turning to “CATATACATAGACACACACACACATAAATAAATATA [CACACA_site6749]”, the “gcPBM binding intensity (ln)” value came out at 10.1.
